In the data set the test system is ATP. Put plainly: switch fluorescence ratio, 500 uM ATP over buffer (Cy3 cluster intensity, sum of 5 cycles each) (fold (ratio)); higher = stronger signal-on switching upon ATP binding; sequences stand for … in TCGTCGGCAGCGTCAGATGTGTATAAGAGACAGTTTTTTTTTTTTTTTTTTTTTTTTT…TC. As to conditions: aptamer strand: ATP DNA aptamer (quencher-CACCTGGGGGAGTATTGCGGAGGAAGG + anchor), 100 nM annealed; ATP concentration: 500 uM; one replicate. In outline:
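Clusters with intensities outside 100-1000 RFU were excluded. The remaining Cy3-labelled switching-strand clusters on a modified Illumina MiSeq flow-cell had been annealed to 100 nM quencher-labelled ATP aptamer and imaged in selection buffer, then after 15 min with 500 uM ATP at 22 °C, for five cycles separated by NaOH stripping and re-annealing. The fluorescence ratio, averaged per switch-domain sequence, is each cluster's summed target-cycle Cy3 intensity over its summed buffer-cycle Cy3 intensity.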

Sequences with one replicate were seen in a single cluster, so their values are uncertain.
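Note: ATP exposure 15 min at 22 °C before imaging.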

On to CGCTCTGATT, for which the switch fluorescence ratio came out at 0.975.
On to GATAATTAGT, for which the switch fluorescence ratio is 0.984.
The same measure for GGCGTCTGGC: 0.974.
Take ACAAGGTAAG: the switch fluorescence ratio was determined as 0.988.
The same measure for CTTGCGACCA: 1.22; for TTATAACATC: 1.08; for TTGTAAATAA: 1.09.
As to CTTCTATGTG, the switch fluorescence ratio amounted to 0.97.
Consider CCCTTTGCGA, for which the switch fluorescence ratio worked out at 2.24.
Consider TAGGATCTTG, for which the switch fluorescence ratio was determined as 0.984.
For ATATCGACGC the value was 1.48; for TTCAAGAAAT, 0.998.
For the sequence ATATTACATT, the switch fluorescence ratio was 1.06.
For CTGCTATCAA the value was 1.01; for AGTGACGGGG, 0.934.
Consider CCCTCCTCTT, for which the switch fluorescence ratio was 1.12.
The same measure for CAAGACAGTA: 0.998; for CAAGGGTGTC: 1.05.
In the case of ATCATTTCGG, the switch fluorescence ratio was 0.97.
For TCAGTGTCAC the value was 1.06; for TAACGAGTTT, 0.995.
As to TTAGTGATG, the switch fluorescence ratio is 1.01.
The same measure for ATAGTCGGAT: 1; for GGCACTAGGT: 1.03.
With TATTGACCGA, the switch fluorescence ratio worked out at 1.06.
Regarding GAGGTAATAG, the switch fluorescence ratio was determined as 2.54.
On to GGTGCTTCAC, for which the switch fluorescence ratio stood at 0.984.
Regarding TTAGCAGGGG, the switch fluorescence ratio was determined as 1.08.
The same measure for GAGACTAAAT: 1.01.
For CGTGTTTGT the value was 0.971.
TGGCGCATCT: the switch fluorescence ratio was found to be 0.991.
For the sequence TAGGATACAG, the switch fluorescence ratio was determined as 1.01.
As to CGTTCAACCG, the switch fluorescence ratio came out at 1.01.
With TGAACTCATT, the switch fluorescence ratio is 1.03.
The same measure for TAACGATTAT: 0.991; for CAGGCTCAGC: 1.01; for CCCCCACCAG: 1.66.
The same measure for ATCTTGATG: 0.992; for AGGGAATTAT: 1.
For TCGGGGCCTG the value was 0.947; for AACATGCTTC, 0.974; for CGTCCATAGC, 1.47.
On to GCTCTGAGCA, for which the switch fluorescence ratio is 0.96.
For CAAGGGGCCT the value was 0.976.
For CAGATAGGGC the value was 0.992; for AAGGGTGACT, 0.974; for TTAGGTCTA, 1.01.
The same measure for GGGGCCGTTC: 0.957; for TTTAGCTGAT: 1.02; for TCGCCATGGC: 0.972.
As to ACGTAGGATC, the switch fluorescence ratio worked out at 1.04.
For the sequence ATATCACGGA, the switch fluorescence ratio is 1.05.
For TGCCCACCCC the value was 1.25; for GCATAAAAGC, 0.997.
For CGTAGAGTGC the value was 0.975; for CCCTGTGCTT, 1.07.
The same measure for GCCGAATGTC: 1.04; for CAGGCGCTAA: 1.25.
For TTCAACGATC, the switch fluorescence ratio worked out at 1.01.
As to GCCCTTTGTG, the switch fluorescence ratio is 1.04.
For GAAGTGAGGC, the switch fluorescence ratio was found to be 1.06.
The same measure for TATCATGGGC: 1.06; for CAGTTATTTA: 0.965; for GCAGGGATTC: 1.02.
For GAAGGATGAC the value was 1.05.
The same measure for GCTTTTTGAT: 0.949; for TACTTGAGCT: 1.01.
With TAGCGTGGC, the switch fluorescence ratio came out at 0.952.
The same measure for AGAAGTGAAC: 0.981; for CACTATACAC: 1.37; for TTTAGGCCCG: 1.05.
For GGTTGTGACC the value was 1.02.
For GATGGGTAC the value was 1.66; for GCCCTATAC, 1.81; for TCGAAAGGGT, 1.05.
For the sequence ATGCTCAAGC, the switch fluorescence ratio came to 1.05.
For GATCGGTTGC the value was 1.01.
The same measure for GCTCTGTATG: 1.02; for GTGCCCCAA: 1.02; for ATGAACTACC: 1.09.
The same measure for GTTCATAGTT: 0.978; for GACTTTGAGG: 0.995; for TCGGCTTCGC: 1.13.
Regarding CATGAATTCC, the switch fluorescence ratio is 1.07.
For GCGATCCTAG, the switch fluorescence ratio came to 0.986.
The same measure for CAATTTTAGA: 0.981.
The same measure for CGCATCCA: 1.14; for ACATAATAAC: 1.02; for GTCGCTGGAG: 0.998.
For AATGTTCGCA the value was 0.991; for TCTCTAACGA, 1.02.
As to GCGTAACTAA, the switch fluorescence ratio came to 0.987.
On to TTTCCGCTT, for which the switch fluorescence ratio stood at 1.05.
With TGCATCCAAA, the switch fluorescence ratio is 1.03.
As for CGCTAGGACT, the switch fluorescence ratio stood at 1.14.
The same measure for TAGTTATGTA: 0.986; for GAAATGGGAT: 0.984; for CGAGGACCTG: 1.04.
The same measure for TAATAGTGAA: 1.07; for TGACTCCG: 1.08; for ATAGCCCGTT: 1.02.
For CTGCCCCGGT the value was 1.92.
Regarding GGTGCCCTGG, the switch fluorescence ratio amounted to 1.14.
The same measure for TGCTGGTGCT: 0.959.
For TTTCTTGGCA the value was 1.01; for GGGGGGCGTA, 1.09; for GCCGGGCATC, 1.
For GGAATATAAT the value was 1.01; for GCCTTCCCGT, 2.26.
Turning to CTGACTTATT, the switch fluorescence ratio turned out to be 1.07.
The same measure for GAAAAAGTTA: 0.966; for GGAGTTTTCT: 0.965; for GATGGATGCG: 1.06.
As for GTAATATGAA, the switch fluorescence ratio was found to be 0.964.
On to TGTCAATTAA, for which the switch fluorescence ratio came to 1.05.
TGCAGGCTG: the switch fluorescence ratio was 1.03.
The same measure for GTTTATCCGG: 0.98; for GTCCACTACG: 1.07.
As to CCATCAAAGT, the switch fluorescence ratio amounted to 1.01.
As for TGACACGGTC, the switch fluorescence ratio is 1.14.

The values are drawn from the supplement of paper PMC10126150.
